“And” between values parts separate entries of the source, which are not always exact repeats. Equal values may be shown once. Screen size: about 420,000 compounds; about 50,000 (12%) were called active. Inconclusive means that the source gave no clear call. Such entries were picked first, then a sample of the others. The call rests on the fitted dose curve; in most records, active means well fitted inhibition curve with a large enough effect; inconclusive means small, poorly fitted or top-dose-only effect; inactive means flat fitted curve, though single readings scatter. Potencies of inconclusive entries are left out as doubtful fits. More than one record can exist for a structure, and the calls need not agree.
Experiment: qHTS for Inhibitors of human tyrosyl-DNA phosphodiesterase 1 (TDP1): qHTS in cells in presence of CPT; further: nearly all actives have a fitted effect of over 55% in size
Settings: chicken DT40 Tdp1-/-;hTDP1 cells + 20 nM CPT, ATP luminescence, 48 h; activity change, negative = growth inhibition: at 46.2 µM (top of the series)
How it was run: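 Chicken DT40 Tdp1-/- cells stably complemented with human TDP1 were seeded at 400 cells/well in medium containing 20 nM camptothecin, exposed to pin-transferred compounds, and grown at 37 °C for at least 48 hr. Viability was read as ATP luminescence.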
With CCOc1ccc(CN2CCNC(=O)C2CC(=O)NCCN2CCOC2=O)cc1 (stereo not given) the “activity change, negative = growth inhibition” value was inactive: -1.48%.
With C(=N\Nc1nc2ccccc2[nH]1)/c1cccs1 the Potency was inconclusive [inhibitor, single point].
For CCc1ccc(C2NC(=O)c3[nH]nc(-c4cccc(OC)c4)c32)cc1 (stereo not given), the Potency was inconclusive [inhibitor, single point].
For CCOC(=O)N1CCN(C(=O)c2ccc(Oc3ccc([N+](=O)[O-])cc3)cc2)CC1, the Potency was active: 16.4 µM.
With O=C(COC(=O)c1ccc2c(c1)OCO2)Nc1ccccc1F the “activity change, negative = growth inhibition” value was inactive: -12.8%.
For O=C(NCc1ccco1)C1CC(c2cc(C(F)(F)F)cc(C(F)(F)F)c2)=NO1 (stereo not given), the Potency was active: 2.59 µM.
In the case of O=C(COc1ccc2ccccc2c1)NC1=NCCS1, the Potency is reported as inconclusive [inhibitor, single point].
With Cc1ccc(-c2nnnn2-c2ccc(C)cc2)cc1 the Potency was inconclusive [inhibitor, single point].
With Cc1sc2ncnc(SCC(=O)NC3CCCC3)c2c1C the “activity change, negative = growth inhibition” value was inactive: -16.8%.
For COc1ccc(CNC(=O)C2Cc3c(-c4ccc5c(c4)OCO5)ccnc3O2)cc1OC (stereo not given), the Potency was active: 18.4 µM.
In the case of COc1ccc(CCc2ccnc3ccccc23)cc1, the Potency is reported as inconclusive [inhibitor, single point].
With COc1ccc(NC(=O)CCN2CCN(c3ccccc3F)CC2)c(OC)c1 the “activity change, negative = growth inhibition” value was inactive: -0.854%.
With O=C(CCNC(=O)c1ccc([N+](=O)[O-])cc1)Nc1nc2ccccc2[nH]1 the “activity change, negative = growth inhibition” value was inactive: -4.11%.
For COCc1cnc(C)nc1N, the “activity change, negative = growth inhibition” value was inactive: 7.19%.
With Cc1cc(C)c(S(C)(=O)=O)c(Oc2ccc(C(C)(C)C)cc2)n1 the “activity change, negative = growth inhibition” value was inactive: -15.7%.
In the case of O=C(C1CCN(S(=O)(=O)c2cccnc2)CC1)N1CCN(c2ccccc2Cl)CC1, the Potency is reported as inconclusive [inhibitor, single point].
In the case of CCCCCC(=O)O[C@H](CC(=O)O)C[N+](C)(C)C, the “activity change, negative = growth inhibition” value is reported as inactive: 7.71%.
In the case of CSc1ccc(-c2nc(CN3CCCCC3c3cccnc3)c(C)o2)cc1 (stereo not given), the Potency is reported as inconclusive [inhibitor, single point].
For COc1ccc(/C=N/NC2=NS(=O)(=O)c3ccccc32)cc1OC, the “activity change, negative = growth inhibition” value was inactive: -16%.
For CC1(C)OC(=O)C2=C(C[C@@H](CCOCc3ccccc3)O[C@@H]2c2ccc(F)cc2)O1, the Potency was inconclusive [inhibitor, single point].
For Cc1ccc(C)c(Cn2c3ccccc3c3cnn(CC(=O)NC(C)c4ccccc4)c(=O)c32)c1 (stereo not given), the Potency was active: 2.91 µM.
In the case of O=C(C(=Cc1ccccc1)c1ccccc1)c1ccccc1, the Potency is reported as inconclusive [inhibitor, single point].
In the case of O=C(NCC1CCCO1)c1cc2c(s1)CCCC2 (stereo not given), the “activity change, negative = growth inhibition” value is reported as inactive: -4.2%.
With CC(=O)c1ccc(N2CCN(C(=O)c3cccs3)CC2)c(F)c1 the Potency was inconclusive [inhibitor, single point].
With Cc1ccc2[nH]c(=O)c(CN(Cc3ccco3)S(=O)(=O)c3c(C)ccc4nsnc34)cc2c1 the Potency was inconclusive [inhibitor, single point].
For CC(C)CC(=O)NC(=S)Nc1ccc(S(=O)(=O)NC(C)(C)C)cc1, the Potency was inconclusive [inhibitor, single point].
In the case of CCN(CC)S(=O)(=O)c1ccc(N2CCCC2)c(C(=O)OCC(=O)Nc2cc(C)on2)c1, the “activity change, negative = growth inhibition” value is reported as inactive: -14.1%.
For O=C(CCCSc1nc2sc3c(c2c(=O)[nH]1)CCC3)NCCO, the activity change, negative = growth inhibition was inconclusive: -32.2% [inhibitor].
With CC(OC(=O)c1cc2sccc2n1C)C(=O)NCc1ccco1 (stereo not given) the “activity change, negative = growth inhibition” value was inactive: -28.1%.
With CCCNC(=O)CN1CCN(c2ncc(NC(=O)c3ccc(Cl)cc3)cc2C(=O)O)CC1 the “activity change, negative = growth inhibition” value was inactive: -2.66%.
For COc1ccccc1N(C)S(=O)(=O)c1ccc(C(=O)Nc2ncc(C)s2)cc1, the Potency was inconclusive [inhibitor, single point].
For O=[N+]([O-])c1ccc(CN2CCSCC2)cc1, the “activity change, negative = growth inhibition” value was inactive: 6.97%.
With O=C(CSCc1c(F)cccc1Cl)NCC1CCCO1 (stereo not given) the “activity change, negative = growth inhibition” value was inactive: -10.4%.
With OCCNCc1cccc(OCc2ccccc2Cl)c1 the Potency was inconclusive [inhibitor, single point].
For Cc1c(CC(=O)N[C@H](C(=O)O)C(C)C)c(=O)oc2cc3c(cc12)CCC(C)(C)O3, the Potency was inconclusive [inhibitor, single point].
For Cc1ccc(C2C(=O)N(C3CCCC3)CC(=O)N2CC2COc3ccccc3O2)cc1 (stereo not given), the Potency was inconclusive [inhibitor, partial curve].
In the case of O=C(O)c1ccc2c(=O)n3c(nc2c1)/C(=C/c1ccccc1C(F)(F)F)CCCC3, the “activity change, negative = growth inhibition” value is reported as inactive: 6.73%.
For COc1ccc(N(C)S(=O)(=O)c2cccc(C(=O)Nc3cccc(C(=O)NC4CC4)c3)c2)cc1, the Potency was active: 14.6 µM.
In the case of Cc1c(C(=O)NCCCN2CCOCC2)oc2ccc(S(=O)(=O)N3CCOCC3)cc12, the “activity change, negative = growth inhibition” value is reported as inactive: -2.61%.
With O=S1(=O)CCO[C@H]2Cc3ccccc3[C@H]2N1Cc1cccc(F)c1 the Potency was “inactive and active: 20.6 µM”.
With COCCCNC(=O)c1cccc(S(=O)(=O)N2CC3(C)CC2CC(C)(C)C3)c1 (stereo not given) the Potency was inconclusive [inhibitor, partial curve, poor fit].
For CCCCN(C)C(=O)c1cc2cc3cc(OC)ccc3nc2o1, the Potency was inconclusive [inhibitor, single point].
In the case of Cc1csc2ncnc(N3CCN(C(=O)Nc4ccc(OC(F)(F)F)cc4)CC3)c12, the Potency is reported as active: 10.3 µM.
For Cc1ccc(C(=O)N(CC(=O)NC2CCCCC2)c2ccccc2C)s1, the Potency was inconclusive [inhibitor, single point].
With O=C(c1cc(COc2ccc(F)cc2Cl)on1)N1CCN(c2cnccn2)CC1 the Potency was inconclusive [inhibitor, partial curve].
In the case of N#CC1=C(N)C2=CCCC[C@H]2[C@H](c2ccccc2)C1(C#N)C#N, the Potency is reported as inconclusive [inhibitor, single point].
For C=CCNC1=C2C[C@@H](C)C[C@H](OC)[C@H](O)[C@@H](C)/C=C(\C)[C@H](OC(N)=O)[C@@H](OC)/C=C\C=C(/C)C(=O)NC(=CC1=O)C2=O, the Potency was active: 1.06 µM.
With Cc1ccc(NC(=O)NCc2ccc3[nH]c(C)cc3c2)cc1 the “activity change, negative = growth inhibition” value was inactive: 9.33%.
In the case of Cc1cccc(-n2ncc3c(N4CCCCCC4)ncnc32)c1, the Potency is reported as inconclusive [inhibitor, single point].
For Cc1ccc(CN(Cc2ccco2)C(=O)c2oc3ccc(C)cc3c2C)cc1, the Potency was inconclusive [inhibitor, single point].
For O=S(=O)(Nc1ccc(-c2ccc3nncn3n2)cc1)c1cc(F)ccc1F, the Potency was inconclusive [inhibitor, partial curve].
With O=C(O)CCC(=O)Nc1ccccc1Oc1ccccc1 the Potency was inconclusive [inhibitor, single point].
With COc1ccc2cc(-c3[nH]ncc3CNCCn3nc(C)cc3C)ccc2c1 the Potency was inconclusive [inhibitor, single point].
For CCOc1ccc(C(=O)c2cn(Cc3ccc(F)cc3)c3ccc(F)cc3c2=O)cc1, the Potency was active: 18.4 µM.
With CC(C)Cn1c(O)c2ccc(C(=O)N=NC(=O)c3cccnc3)cc2c1O the “activity change, negative = growth inhibition” value was inactive: -11.9%.
In the case of CC(=O)Nc1cccc(NC(=O)c2cc(Cl)ccc2Cl)c1, the “activity change, negative = growth inhibition” value is reported as inactive: 5.65%.
With Cc1ccc(C)c(CNC(=O)c2cnc3sc(N4CCCC4)nn3c2=O)c1 the Potency was active: 16.4 µM.
With Cc1cc(C(=O)NC2CCN(Cc3ccccc3)CC2)n[nH]1 the “activity change, negative = growth inhibition” value was inactive: 1.51%.
With CCc1nc2cccnc2n1-c1ccc(C(=O)O)cc1 the “activity change, negative = growth inhibition” value was inactive: 3.09%.
For CCC1CCCCN1C(=S)NC1CCCCC1 (stereo not given), the Potency was inconclusive [inhibitor, single point].
For O=C(COc1cccc(Cl)c1)Nc1cc(S(=O)(=O)N2CCOCC2)ccc1N1CCOCC1, the Potency was inconclusive [inhibitor, single point].
In the case of O=S(=O)(Nc1cccc(S(=O)(=O)N2CCCCCC2)c1)c1ccc(F)cc1F, the “activity change, negative = growth inhibition” value is reported as inactive: 7.17%.
With Cc1ccc(-n2nc(C)c3c(C)c(CCC(=O)O)c(C)nc32)cc1 the “activity change, negative = growth inhibition” value was inactive: 9.07%.
For CC1CCc2c(C(=O)Nc3nccs3)csc2C1 (stereo not given), the Potency was inconclusive [inhibitor, single point].
For COc1ccc(-n2nc(C(=O)NCC(=O)Nc3cccc(Cl)c3)c3ccccc3c2=O)cc1OC, the Potency was active: 14.6 µM.
With COc1ccc(-c2csc(C(NC(C)=O)c3cccc(F)c3)n2)cc1 (stereo not given) the Potency was inconclusive [inhibitor, single point].
For Clc1ccc(Cn2cc3c(n2)-c2cc4ccccc4n2C3)cc1, the Potency was inconclusive [inhibitor, single point].
For O=S(=O)(c1ccccc1)c1nc(-c2ccc(F)cc2)oc1N1CCCCCC1, the Potency was active: 18.4 µM.
For O=C(C1=C[C@@H](c2ccccc2)C[C@@H](OCCCCO)O1)N1CCN(Cc2ccc3c(c2)OCO3)CC1, the Potency was inconclusive [inhibitor, single point].
For CCc1ccc(NC(=O)CSc2nc3ncccc3[nH]2)cc1, the Potency was inconclusive [inhibitor, single point].
In the case of COc1ccc(CCn2c(=N)c(C(=O)NCCN3CCOCC3)cc3c(=O)n4ccccc4nc32)cc1OC, the Potency is reported as inconclusive [inhibitor, single point].
In the case of CCO[C@@H]1OC(C(=O)N2CCCCCCC2)=C[C@H](c2ccc(C(F)(F)F)cc2)[C@H]1CCCO, the Potency is reported as inconclusive [inhibitor, single point].
In the case of O=C(COc1cccc(F)c1)Nc1nc(-c2ccccn2)cs1, the Potency is reported as active: 5.17 µM.
With CCCn1c(=NC(C)=O)c(C(=O)OCC)cc2c(=O)n3ccccc3nc21 the “activity change, negative = growth inhibition” value was inactive: -16.3%.
With CCOC(=O)c1nnn(CC(=O)N2N=C(c3ccccc3)CC2c2ccccc2)c1C(=O)OCC (stereo not given) the Potency was inconclusive [inhibitor, single point].

— PubChem BioAssay AID686979 (National Center for Advancing Translational Sciences (NCATS), 2013)
On the % scale 0 is the no-effect control and ±100 the full control effect; potency means the concentration at half of the fitted maximal effect; tags describe the fitted curve by direction and shape.
